Paper PMC10726135
This is one part of the list. At the low end of the ranking the order means little. Measured with an extract: partners may take part in the binding.

target: T1, HNF4alpha8 (COS-7 nuclear extract) (UniProt P41235-5); assay: protein-binding microarray; details: COS-7 nuclear extract on double-stranded Agilent 4x180k PBM; binding buffer, salt, pH and temperature not given; high values mean tight binding; double strand, one strand shown; sequences stand for … in …GCCTAGGGAGATTAGAGTATCGGTCGA
T1 sequence: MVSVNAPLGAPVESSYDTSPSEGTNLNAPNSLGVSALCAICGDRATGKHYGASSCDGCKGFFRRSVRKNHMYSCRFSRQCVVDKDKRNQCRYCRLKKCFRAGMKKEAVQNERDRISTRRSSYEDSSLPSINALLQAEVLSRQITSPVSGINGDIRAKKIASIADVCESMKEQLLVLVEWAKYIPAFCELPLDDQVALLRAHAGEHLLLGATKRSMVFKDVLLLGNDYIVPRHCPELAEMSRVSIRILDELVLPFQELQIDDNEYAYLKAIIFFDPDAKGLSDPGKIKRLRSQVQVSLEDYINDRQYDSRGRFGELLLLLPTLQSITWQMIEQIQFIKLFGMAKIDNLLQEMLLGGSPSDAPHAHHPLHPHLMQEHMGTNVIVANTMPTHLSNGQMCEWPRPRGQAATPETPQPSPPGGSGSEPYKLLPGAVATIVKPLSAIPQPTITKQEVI

| Sequence | binding signal (log2 normalized intensity) |
| --- | --- |
| ACCTTGACCCAAGAAATAAAAACAGCTGGG | -1.32 |
| TGCATCAAACAGCTTAGGGTTCAAACTCCA | 4.54 |
| GAGAAAGAGACAGAGAGAGAGAGAGAATGA | -1.16 |
| GGCAAACATTTGCGCAAACATAAAGGCAAA | -1.35 |
| TGTTCTTTACTTCCTTTTGTTCCTGCTCTA | 1.67 |
| ATCACTGAATCGAGGCTATTCTGTAACACA | -1.27 |
| ACACACACATACACACACACACACACACAT | -1.31 |
| ATCTTATCTAGTTTCCTAGCTCACTGATAA | -1.34 |
| AGGGGGAATGCCAACAGGTCAGGGAGTAGG | -1.43 |
| CAAAGGTCATGTTTTCAAACAATGAGAGGC | 3.64 |
| GATAAAGGAACAGGCCCCAGGGACTTTGGC | 2.06 |
| TTCTACAGTGTTTACCGGATGAAAAGTGTT | 0.883 |
| AGCCCTGGTTTATCTGTTGTCAAACCCACA | 0.589 |
| TATGTGATCAGATGTGGACAATCATTGTGC | 1.4 |
| GCAAAGTTCACCAGGAAGCAAGACAATGCA | -1.43 |
| TTTGGAGCCGGTGTCAGTTTCCACTCTGCC | -1.46 |
| AATGTAAACATCAAGGAAGAGAACTCCCTA | -1.32 |
| AGGGACTTTGATCTTCTTACCCCTTTGCTG | 3.3 |
| AAATAAGAATGACCAGGAGTTTGGGATCAG | -1.26 |
| AAAGAACCATGAGAGGGTTAAAAACCAGAA | -1.07 |
| GCAAAGGTTAGCAAGGGCCCCCACTAGAGA | 1.32 |
| TTTCAAGAATCTAATCAGGCCTCCCTCCCT | 3.78 |
| ATGTTCCCACGAAACCCTAAACCTGCAAAC | -1.36 |
| TGTTATCAGTTAATTGCATTCTTTGATGTG | 1.54 |
| GACTAGCCACAATAGGCCCTCCCAGCCTAT | -1.37 |

| Sequence | binding signal (log2 normalized intensity) |
| --- | --- |
| GGTTGTGTTTGCAGTGAGTAACCTTGAGGA | 1.72 |
| AAGGAAGAGGGAAGACCAAAGGCCAAAGAG | -1.31 |
| AAAGGAATGCGCCTGAACTGACTGCATTCC | -1.22 |
| AAATGCAGGTGAGAGGCCTCTAAGCATAAC | -1.12 |
| CCTTCCCTTTCATGTTGAACGTCTTCAGAA | 1.35 |
| CTGCTTCGGCCTTTGACCTCGTGATAACGA | 5.83 |
| GCAAGACTTTGGCCCTGCAGACTTTGCCTC | 3.9 |
| GATGAAGGTTATTCTTTCCCCTCCCTTCCA | 3.35 |
| GCTGAGAGATTCCTCTGCACAATAAAACTT | -1.31 |
| AGTTCAGGAGGGAGGAGCATTTCACAGAAA | -1.2 |
| CTGCCTTGGAGGTGAGGGTTACAGGTGGAC | 1.59 |
| TGGAAACAACTGTGCAGGTGACAGAATTCC | -1.29 |
| AATCTCTCATCTGCCTTGTGATTTCCAAAA | 0.701 |
| ATTAATATATTCATAACACTTGTATGACCT | 3.27 |
| GAAACATCCACATGTGGGTCCAAAGAACAT | 3.82 |
| CACTGCAGGATTGGAGATCTGAACTCAAGC | 0.997 |
| GAGTTAATGCTGGAGTTAAAGCTTTGAGGA | -1.29 |
| TTTCCCTGGTCGACCTCCCCGTCACCCTCC | 4.36 |
| TCGCCTCCACCTGCACCATTCTTGTCCTTT | 2.66 |
| CTACCTTTGGACTTCTCATTACATGGGACA | 3.1 |
| CACAGGATTTAAAGAATTCCAGACAATCTG | -1.31 |
| GCTTATGCATGGGAGATCTTCAGTAAGAGG | 0.414 |
| ACCCCTCCACTGGACAGCAGCTACATAAGG | 1.83 |
| CCTGGATAAGCCAGATAATTTGTGCAACAT | -0.991 |
| TAGAAAAGAGTTAAAAAAAAAAAAAACTAT | -1.27 |

| Sequence | binding signal (log2 normalized intensity) |
| --- | --- |
| AGGTGACTTGCCCAGACACACCTGCAATGG | -1.16 |
| AACTCTCAGTTTGGCTCTTATGTCCCTCCT | 0.947 |
| AGCCAAGTTTTGCAACATACTGAAAAAGGG | -1.3 |
| GCAGAAACAAATACAGACACACCTAGGGAG | -1.46 |
| AAACCAACACCAGCAACCGCCTACCTTTGG | -1.37 |
| TGGCCTGGTTCCTTCTCAGTGACAAAAACA | 0.68 |
| CTTTGCCCCCAGCCTCTCACAGTAGCCCAG | 4.72 |
| AGAGGCCTGGGAATGCCTAGGGGGAAGCCC | -1.35 |
| CCTTTGAACCAGAGAAGATTCCAGAGGGAG | -1.16 |
| GACTCAAATCCAAGCTGGCTGGCTTTAGAG | -1.33 |
| AGTGCCAGAGCTGTGAAGACTGCAGCAAAG | -1.17 |
| GTAACTCTGGGTCTGAGACCAAAGTCCAGA | 6.64 |
| TGTCCTGAGTTATTGGAAGAATGGAATTGC | 1.27 |
| ATCGGTAAATACGAATAATCATATCTGCCT | -1.31 |
| GCACTAAGCCGAACGCTGGGGCAAAGGTTT | 2.89 |
| ACAGGATCAATAAAAGGTCCAGAGTTCACT | 4.78 |
| GCTGAAGGGAAGGCTGCCGTCCTCAGTGAA | -1.42 |
| ACGGCGCTGACGCCGCCTCTGCCTCTTGAC | -1.37 |
| ATGCCCCATGGTAAGAACTACAGTTGACCT | 4.71 |
| ACATTCATCTGAGACTAACTGCATTTTGGA | 1.24 |
| AAGGAACTCCATCCTCACTTTAGGTGCTCT | -1.24 |
| TGCTGACCTTTAAGCCTATAGTTTCTGTTT | 3.26 |
| ACTGTAAACATCTAATGAACTGATTAGAAC | -1.16 |
| AATGTGATAAGAATTTTGTGCAATTACACA | -1.11 |
| TACTGAAAATGACCTTTGTTCCCTGCACTT | 7.89 |

| Sequence | binding signal (log2 normalized intensity) |
| --- | --- |
| GGTCACAAGAGGTGCTGTGTGCCTGAGAAT | 0.1 |
| TAAAGATAAGAACGCTAGACACTGGGGACT | -1.35 |
| AAGAACACAGCGCAGCACACTGCAGCGGCA | -1.22 |
| TGGTGGCTTGAGTTGGAGAAGAGCAAAGAT | -1 |
| AGAGCAGGAATTCTGATCTTTGACCTCTCC | 8.08 |
| ACCCTCAGGAACCAAGCATTTTGCAAGTTC | -0.863 |
| CTGAGGTGGGAGGATCGCTTGAGCCTGGGA | -1.31 |
| CCAGCAGCTCCAGGAGACGTAGAGATAAGG | -1.41 |
| CAAGTTACACAAGTAGAATGAAAGCGGCTC | -1.23 |
| CTCTGAGCTTCATCCTGACCATCTGCGAAA | -1.15 |
| TCATGGCTCACTGCACCTTGACCTCCTGGG | 5.78 |
| GATAATAAGTGACCCAGGAGGAGAAGGGTG | -1.28 |
| TCTTGTAATCTGCTTCCAGTTCCATAATCC | 0.842 |
| AGTGGGAGTTACACTATCGGCTTCCCTGGT | -1.24 |
| GAGGTGTTCGGGGGACGGAGAGCAGGGCGT | -1.21 |
| AAAGAGTGATTGAAGAAGTGGTTCTTTAGA | -1.19 |
| CTGAGGCCAAAAGTCTCAGAAGCTGGGAGA | -1.33 |
| GCAGCAATCAGCTCCTCAACCAAGGGATCA | -1.3 |
| ACTTAGTCTCCAGCCCCCAGAGGTCACACT | 4.42 |
| AGCTATGGGCAGAAAAAAATGAGTCACAAT | -1.15 |
| CAGGCATTCCACACTGCAGGCTCTGTCCCC | 1.27 |
| TCAACTCTGCCATTGTCGTGGTTGTAGAAA | 1.29 |
| TGAAACAAGCCCATCTTCCAGAAAACGGGA | -1.18 |
| TAAAAACACGAGCTATTGCGAGGTTCCATG | 0.00343 |
| TCTGAAAAAAGCTATCATTTGTCACTTGGA | 0.664 |

| Sequence | binding signal (log2 normalized intensity) |
| --- | --- |
| TCAACTAAGACAGACCCAAAGGTTAAGGAA | 0.493 |
| GTGGCCCAAGATGGAGATGAGAAACTTATT | -1.36 |
| TACTTAAGATAGAGGCTTTAGCAATAAATT | -1.35 |
| ATGGTATGCTCTGATATTCTCTTATCTACT | 0.68 |
| TTGGGAGCAATTTAGCAGCACCATCCTACA | -1.24 |
| TTCATGATCAGGCAAGTGGTCATGTAGGTG | 1.61 |
| TGGACTTTAAACATTCCCACCTAAGACATA | 3 |
| GTTTTTCCTTGATTAAACTTTAGTCAGATT | 3.09 |
| CCGGCCGGCGGGGTCACGTGGGGCCGGTAC | 3.59 |
| AAACTCTTTTCCTTTTTGCATGAGAATCTG | 1.06 |
| TTTAGGCAGTTTTTGATCAAGGAGGACTTT | 4.55 |
| GGAACGTCACACTGAAAGCTATCCCTCCAT | -1.2 |
| GGAGCACACCAGGCCCTCGGCATCATGCCC | -1.15 |
| TGTCCTTCATCTATCTCCTTCTTCCCTTCT | -0.722 |
| CTCTAGGCATTGGAGATATGATAGCTGACA | -1.27 |
| AGGGGTGGATCTCTGTCATGTTCAATATAC | 1.04 |
| TTTTCTCATAAAACACCCACCTTGTTATCT | 1.79 |
| AAATCATGGATCTGTGCTCAGATCCTGCTC | -0.984 |
| GGCGAATGTCAAAGGTCTTTGGTGGTGGGG | 2.45 |
| CAGCTCGTGGGCATGCCTCCCAGAGCATTG | -1.35 |
| TGCAGCCTTGGACTCCTGGACTCAAGGAAT | 4.93 |
| GCTGGTTGCCCCTTTGACCCTCGGGCCTCC | 6.49 |
| CAGATCAAAGGACATTTCTAAAAATAGCCT | -0.707 |
| ATTTGTCCGGGTATGTTCTTAAGATAAGGA | 0.776 |
| TGCTCTTTCTTCTCTGTAGGTAAACAGTGA | 1.39 |

| Sequence | binding signal (log2 normalized intensity) |
| --- | --- |
| CTTGGGGCTGATATCTCTCTGGCTGGTGGG | -1.03 |
| AACTTTGGAAATGCAAACACCTACATTCAA | -1.35 |
| AAGCGATCTTTGCATTCCCAAAATGATTCC | 0.296 |
| GGTTTGGGGTCTAGAACAGCTCCTTTGAAG | -1.2 |
| TGAGGAGCCAAGTTTTGCAACATACTGAAA | -1.42 |
| CTTATCACATTCTGCTCTTGAACCAGAGAA | -0.602 |
| CAGTCCCTATAGCCTCACTTGCTGATAAGG | -1.32 |
| TGTGTGCTGCGCGGGGCCTCCCAGTGGTAT | -1.26 |
| CAACTCTAAGGGGGAAAGTCCACGTGAGAG | 3.33 |
| TGAGTGGAATATGAGGTCAGGGTTCATCTG | 4.46 |
| AATAAATGTGTTTCATCAGTCCAATTCACA | 1.62 |
| GATATTTCCCCTTTGACTTAGGATCAGTAG | 1.23 |
| CTTGTGTAATCCTGCAACAGCCCCATGAGA | 2.25 |
| ATCAAATTAACACAGCTCTAGAGGGCTGCT | -1.38 |
| GGATAAAAGGGGAAAAGGTCAAATACCAAA | 2.96 |
| GCAAAGCTGCTATGAGCTATGATTGCGCCA | -1.4 |
| ATATCCCTGAGAGGCCAGTTTGACCTTTGC | 8.82 |
| AATGCACTGGTGACTTTAAGTTGACTCCAA | -0.366 |
| CACTCCTCCTCCTTCCCTCCTGCTCACTTA | 0.327 |
| ATACCAGAAATTCCATGATTTTCTGGAGGA | -0.82 |
